Numbering of substitutions follows the chain as printed. Results are given in words; binding and its absence hold for the method and conditions named. In cells and extracts the contact can be indirect. Some results given as binding are weak or reduced against the parent protein; the word gives no strength. For part of these data: Where a sequence is shown, tags or fusion partners need not be part of it. One block for each molecule: values may come before it.
Columns and labels:
[1] = biological target: T1, XBP1s (spliced, active form of X-box binding protein 1), transiently expressed (UniProt P17861); experiment: co-IP; HEK293FT cells co-transfected with XBP1s and FLAG-Fbw7; immunoprecipitation with anti-XBP1; blot with anti-XBP1 and anti-FLAG
T1 sequence: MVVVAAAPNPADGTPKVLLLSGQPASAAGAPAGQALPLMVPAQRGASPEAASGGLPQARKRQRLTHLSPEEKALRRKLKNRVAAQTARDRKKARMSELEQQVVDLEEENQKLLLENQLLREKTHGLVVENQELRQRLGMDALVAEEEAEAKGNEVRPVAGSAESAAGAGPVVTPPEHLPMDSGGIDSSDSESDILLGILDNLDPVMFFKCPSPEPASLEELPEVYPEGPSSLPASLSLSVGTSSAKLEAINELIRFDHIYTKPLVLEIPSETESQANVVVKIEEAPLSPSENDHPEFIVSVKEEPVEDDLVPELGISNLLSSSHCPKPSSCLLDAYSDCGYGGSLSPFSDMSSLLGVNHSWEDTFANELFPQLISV

Amino acid sequences for entries named in this document (tags omitted).
UniProt Q969H0: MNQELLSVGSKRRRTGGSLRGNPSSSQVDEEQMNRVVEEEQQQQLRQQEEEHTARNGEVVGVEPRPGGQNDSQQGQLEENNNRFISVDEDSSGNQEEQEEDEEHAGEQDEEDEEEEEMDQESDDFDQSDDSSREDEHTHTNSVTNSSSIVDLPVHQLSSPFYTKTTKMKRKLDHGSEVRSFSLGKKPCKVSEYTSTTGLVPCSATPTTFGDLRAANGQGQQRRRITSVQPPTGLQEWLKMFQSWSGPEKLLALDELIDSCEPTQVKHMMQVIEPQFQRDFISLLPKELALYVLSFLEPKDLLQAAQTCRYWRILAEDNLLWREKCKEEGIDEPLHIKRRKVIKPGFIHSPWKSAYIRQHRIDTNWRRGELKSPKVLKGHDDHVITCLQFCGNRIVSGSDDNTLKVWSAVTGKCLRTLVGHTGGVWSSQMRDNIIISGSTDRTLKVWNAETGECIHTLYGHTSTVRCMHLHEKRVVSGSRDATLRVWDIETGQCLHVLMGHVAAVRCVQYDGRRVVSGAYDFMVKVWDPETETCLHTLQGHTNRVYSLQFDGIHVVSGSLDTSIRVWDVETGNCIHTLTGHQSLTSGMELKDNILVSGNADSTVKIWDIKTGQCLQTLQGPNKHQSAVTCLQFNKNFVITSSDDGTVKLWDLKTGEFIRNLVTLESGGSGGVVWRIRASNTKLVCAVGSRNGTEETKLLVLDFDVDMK

[2] = biological target: T2, endogenous XBP1s, induced by tunicamycin (human (endogenous in HEK293FT)) (UniProt P17861); experiment: co-IP; endogenous proteins; HEK293FT cells treated with 1 μg/ml tunicamycin for 24 h; immunoprecipitation with anti-XBP1
T2 sequence: T1 sequence

[3] = biological target: FLAG-Fbw7, transiently expressed (UniProt Q969H0); experiment: condition: only lysates treated with calf intestinal alkaline phosphatase (CIP); co-IP; lysates with transiently expressed XBP1s and/or FLAG-Fbw7 treated with calf intestinal alkaline phosphatase (CIP; 80 μM, 30 min, 37 °C), then co-immunoprecipitation
[4] = biological target: FLAG-Fbw7, transiently expressed (UniProt Q969H0); experiment: co-IP; HEK293FT cells co-transfected with XBP1s (wild type or mutant) and FLAG-Fbw7; lysate incubated with anti-FLAG-coated magnetic beads at 4 °C for 2 h; blot with anti-XBP1 and anti-FLAG
[5] = biological target: FLAG-Fbw7, transiently expressed (UniProt Q969H0); experiment: co-IP; lysates with transiently expressed XBP1 and/or FLAG-Fbw7 treated with λ-phosphatase, then co-immunoprecipitation

- binding [1]: binds
Molecule: FLAG-Fbw7, transiently expressed (from UniProt Q969H0 1-707)

- binding [2]: binds
Molecule: endogenous Fbw7 (from UniProt Q969H0 1-707)

- binding [3]: no binding
- binding [4]: binds
B1: XBP1s (spliced, active form of X-box binding protein 1), transiently expressed (protein, UniProt P17861-2 1-376)
chain: T1 sequence
- binding [5]: no binding (condition: lysates treated with λ-phosphatase)

- binding [4]: binds
B2: XBP1s S212/217 A mutant, transiently expressed (protein, UniProt P17861-2 1-376)
chain: T1 sequence with S212A, S217A
